Measured values reported in the supplement of paper PMC7826260.
Some of the results follow. One pool of 16,384 single-stranded DNAs met each Rep nickase domain in vitro at 3 µM enzyme and 37 °C for 1 h; the strands have 90 letters, of which the middle is given. Values are log2 of uncut reads against the no-enzyme pool; the lower, the more was cut; hits are not called. Shares of all reads are compared; values above 0 arise when much of the pool is cut.

Assays:
Test in all cases: uncleaved DNA left, log2 of reads against the no-enzyme library (log2 ratio); higher = less cleavage (more negative = more Rep cleavage of the k-mer); sequences stand for … in CTCGTCCG…ACCGGAGA
[1] = system: T1, Rep nickase domain of Muscovy duck circovirus
T1 sequence (residues 1-111, tag not shown): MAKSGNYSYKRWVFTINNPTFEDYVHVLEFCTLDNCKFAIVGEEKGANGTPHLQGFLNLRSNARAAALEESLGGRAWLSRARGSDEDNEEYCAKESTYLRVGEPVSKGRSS
Experimental: (§1)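 A pool of 90-nt single-stranded DNAs with seven random bases just before the constant AC of the nick site (name = the seven bases) was cut by 3 µM recombinant His6-SUMO-tagged Rep nickase domain (300 nM DNA, 50 mM HEPES pH 8.0, 50 mM NaCl, 1 mM MnCl2, 1 h, 37 °C, three replicates). Uncut DNA was amplified and sequenced.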

[2] = system: T2, Rep nickase domain of banana bunchy top virus
T2 sequence (residues 1-94, tag not shown): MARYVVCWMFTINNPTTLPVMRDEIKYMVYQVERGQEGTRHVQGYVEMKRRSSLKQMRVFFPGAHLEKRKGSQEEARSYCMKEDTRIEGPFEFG
Experimental: as §1

[3] = system: T3, Rep nickase domain of cabbage leaf curl virus
T3 sequence (residues 1-116, tag not shown): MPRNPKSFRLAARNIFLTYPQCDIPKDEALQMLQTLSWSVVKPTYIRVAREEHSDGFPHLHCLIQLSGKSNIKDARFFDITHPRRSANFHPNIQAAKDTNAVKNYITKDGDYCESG
Experimental: as §1

[4] = system: T4, Rep nickase domain of chickpea chlorotic dwarf virus
T4 sequence (residues 1-124, tag not shown): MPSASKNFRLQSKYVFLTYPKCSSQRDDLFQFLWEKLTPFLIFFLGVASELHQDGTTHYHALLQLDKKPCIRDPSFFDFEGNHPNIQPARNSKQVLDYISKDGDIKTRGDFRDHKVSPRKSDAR
Experimental: as §1

[5] = system: T5, Rep nickase domain of faba bean necrotic yellows virus
T5 sequence (residues 1-98, tag not shown): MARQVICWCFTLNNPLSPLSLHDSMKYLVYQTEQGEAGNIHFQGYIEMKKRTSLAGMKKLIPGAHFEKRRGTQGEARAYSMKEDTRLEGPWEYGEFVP
Experimental: as §1

[6] = system: T6, Rep nickase domain of maize striate mosaic virus
T6 sequence (residues 1-117, tag not shown): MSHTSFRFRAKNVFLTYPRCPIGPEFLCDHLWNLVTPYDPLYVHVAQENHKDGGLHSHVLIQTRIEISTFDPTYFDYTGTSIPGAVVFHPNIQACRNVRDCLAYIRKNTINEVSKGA
Experimental: as §1

[7] = system: T7, Rep nickase domain of porcine circovirus 2
T7 sequence (residues 2-116, tag not shown): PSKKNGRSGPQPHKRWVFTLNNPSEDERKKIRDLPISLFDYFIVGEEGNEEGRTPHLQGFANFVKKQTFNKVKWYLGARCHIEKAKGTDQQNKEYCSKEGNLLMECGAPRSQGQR
Experimental: as §1

[8] = system: T8, Rep nickase domain of tomato golden mosaic virus
T8 sequence (residues 1-124, tag not shown): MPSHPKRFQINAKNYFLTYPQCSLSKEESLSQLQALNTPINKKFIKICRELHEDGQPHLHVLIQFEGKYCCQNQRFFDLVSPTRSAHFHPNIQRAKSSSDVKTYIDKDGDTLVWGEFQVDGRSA
Experimental: as §1

[9] = system: T9, Rep nickase domain of tomato yellow leaf curl virus
T9 sequence (residues 1-136, tag not shown): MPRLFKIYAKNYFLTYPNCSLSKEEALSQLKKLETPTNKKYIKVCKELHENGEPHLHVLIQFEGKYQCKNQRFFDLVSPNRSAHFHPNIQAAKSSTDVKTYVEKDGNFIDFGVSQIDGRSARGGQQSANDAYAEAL
Experimental: as §1

[10] = system: T10, Rep nickase domain of wheat dwarf virus
T10 sequence (residues 1-137, tag not shown): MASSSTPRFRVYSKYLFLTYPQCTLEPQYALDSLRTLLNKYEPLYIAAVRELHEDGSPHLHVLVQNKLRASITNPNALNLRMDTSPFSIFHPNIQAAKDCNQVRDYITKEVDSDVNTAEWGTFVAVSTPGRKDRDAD
Experimental: as §1

Row | Sequence | uncleaved DNA left (log2) [1] | uncleaved DNA left (log2) [2] | uncleaved DNA left (log2) [3] | uncleaved DNA left (log2) [4] | uncleaved DNA left (log2) [5] | uncleaved DNA left (log2) [6] | uncleaved DNA left (log2) [7] | uncleaved DNA left (log2) [8] | uncleaved DNA left (log2) [9] | uncleaved DNA left (log2) [10]
1 | GCCGAAT | -0.0216 | 0.0402 | 0.116 | 0.446 | -0.097 | 0.604 | -0.00797 | 0.139 | -0.0592 | 0.0587
2 | TCTTTAT | -0.175 | -0.106 | 0.142 | -0.676 | 0.0638 | -0.323 | -1.6 | 0.0598 | 0.129 | -0.0786
3 | GTAAAGT | 0.103 | 0.0398 | 0.233 | 0.773 | -0.00346 | 1.41 | 0.148 | 0.0156 | 0.0856 | 0.0905
4 | TATGACC | 0.0482 | -0.0139 | 0.103 | 0.309 | -0.114 | 0.595 | 0.0556 | 0.0407 | 0.023 | 0.0316
5 | ATGAGCC | -0.0254 | -0.0516 | -0.0065 | 0.0109 | 0.00999 | -0.576 | -0.127 | -0.0787 | 0.00749 | -0.046
6 | AAACATA | -0.0193 | 0.107 | -0.257 | -2.45 | 0.0235 | -0.402 | -0.0207 | -0.0641 | 0.0232 | 0.011
7 | GGTTTCC | -0.108 | -0.0805 | 0.319 | 0.907 | -0.0635 | 1.61 | -0.0281 | -0.1 | -0.0153 | 0.0469
8 | CCACCGT | -0.0726 | -0.0137 | -0.33 | -1.12 | 0.0256 | -0.869 | 0.0396 | 0.0269 | -0.117 | -0.107
9 | CACCTAG | -0.175 | -0.183 | -0.807 | -0.412 | 0.0203 | -1.05 | -0.0595 | -0.0723 | -0.0123 | -0.148
10 | ATGATAC | -0.0367 | -0.0302 | -0.185 | -0.585 | 0.0362 | -0.807 | -0.0586 | -0.0284 | -0.0389 | -0.099
11 | AGCGCGA | 0.055 | -0.0472 | -0.285 | -0.0112 | 0.0182 | -0.0812 | 0.0413 | -0.018 | -0.118 | -0.0594
12 | CCTACCC | -0.226 | -0.088 | -0.169 | -1.92 | 0.0789 | -0.433 | -0.838 | -0.0351 | -0.19 | -0.0391
13 | GCTCCGG | 0.0108 | 0.0275 | 0.509 | 1.36 | 0.0089 | 1.7 | 0.158 | 0.143 | 0.0301 | -0.0239
14 | TGTATCC | 0.0443 | 0.0376 | 0.249 | 0.521 | -0.0474 | 0.852 | 0.00717 | -0.0342 | -0.0322 | -0.0163
15 | CGTTACG | 0.054 | 0.0516 | -0.746 | -0.338 | 0.0697 | -0.9 | 0.181 | -0.0396 | 0.0953 | 0.0533
16 | TGAACAC | 0.0759 | 0.127 | 0.332 | 0.621 | 0.0447 | 0.894 | 0.0484 | 0.0616 | 0.0774 | 0.0864
17 | CTGCGTA | -0.0905 | -0.194 | -1.11 | -0.612 | -0.0225 | -0.99 | -0.123 | -0.166 | -0.0843 | -0.362
18 | CTCGTTA | 0.0443 | -0.181 | -0.322 | -1.09 | -0.163 | -0.882 | -0.134 | 0.0392 | -0.101 | -0.169
19 | CAATCTT | -3.9 | -1.32 | -4.15 | -3.75 | -0.185 | -2.78 | -3.84 | -3.73 | -0.463 | -3.72
20 | AACCAGG | 0.0477 | 0.0191 | 0.181 | 0.748 | 0.0117 | 0.0559 | 0.0772 | 0.0774 | -0.0441 | 0.122
21 | CCCCCGG | -0.0808 | -0.0316 | 0.376 | 1.21 | -0.00228 | 1.46 | 0.0759 | 0.0722 | -0.134 | 0.0299
22 | ACGACGA | -0.185 | -0.175 | -0.293 | -0.0566 | -0.12 | -0.609 | -0.0618 | -0.0989 | -0.139 | -0.0532
23 | ATAGCCT | 0.0112 | -0.0316 | -0.212 | -1.93 | 0.00543 | -0.728 | 0.0185 | -0.0781 | 0.0633 | -0.057
24 | GCTGATG | 0.0847 | -0.0543 | -0.132 | -0.0504 | 0.0942 | -0.304 | 0.142 | -0.0804 | 0.112 | -0.0602
25 | ATCATGA | -0.0892 | 0.0144 | -0.291 | -0.254 | -0.121 | -1.02 | 0.0261 | -0.145 | -0.0699 | -0.133
26 | ACGACGC | -0.0725 | -0.174 | -0.269 | -0.264 | -0.172 | -0.885 | -0.0474 | -0.0905 | -0.139 | -0.0991
27 | GTTAAGG | -0.0298 | -0.0313 | 0.362 | 1.33 | -0.0183 | 1.7 | 0.174 | 0.0631 | -0.108 | 0.0956
28 | GAGTGAT | 0.112 | -0.103 | 0.412 | 1.2 | -0.14 | 1.97 | -2.78 | 0.14 | 0.203 | 0.262
29 | GAAGGAC | 0.127 | 0.117 | 0.794 | 1.95 | 0.113 | 2.06 | 0.34 | 0.149 | 0.132 | 0.196
30 | TGTTCAA | 0.149 | -0.00425 | 0.259 | 0.575 | 0.0722 | 0.623 | -0.046 | 0.0132 | 0.133 | 0.108
